Laboratory results reported in PubChem BioAssay AID686978 (National Center for Advancing Translational Sciences (NCATS), 2013).
About 64,000 (15%) of roughly 420,000 compounds were called active. Inconclusive means that the source gave no clear call. Such entries were picked first, then a sample of the others. Calls follow the shape of the dose curve; as a rule, active = well fitted inhibition curve with a large enough effect; inconclusive = small, poorly fitted or top-dose-only effect; inactive = flat fitted curve, though single readings scatter. Potencies of inconclusive entries are left out as doubtful fits.

assay: qHTS for Inhibitors of human tyrosyl-DNA phosphodiesterase 1 (TDP1): qHTS in cells in absence of CPT; conditions: DT40 Tdp1-/- hTDP1 cells, no CPT, ATP luminescence, 48 h; activity change, negative = growth inhibition: at 46.2 µM (top of the series) unless noted; also: nearly all actives have a fitted effect of over 55% in size
Summary of the method: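 Compound effects on proliferation are scored in DT40 Tdp1-/-;hTDP1 cells in the absence of CPT. ATP levels (CellTiter-Glo luminescence) are recorded after a ≥48 hr, 37 °C incubation.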
% is scaled to controls: 0 for no effect and ±100 for the full control effect; potency is read from the fitted curve at half-maximal effect; tags tell the direction and shape of the fitted curve.

| SMILES | Potency | activity change, negative = growth inhibition |
| --- | --- | --- |
| COc1ccccc1CNC(=O)CN1C(=O)C(C)N(c2ccc(C)cc2)C1=O (stereo unspecified) | inconclusive [inhibitor, single point] | – |
| CN(c1ccc(C(=O)Nc2ccc3c(c2)OCCO3)cc1)S(C)(=O)=O | – | inactive: -8.68% |
| CCN(CC)S(=O)(=O)c1cc(NC(=O)c2ccc3c(c2)NC(=O)C(C)S3)ccc1C (stereo unspecified) | active: 20.6 µM | – |
| CCOC(=O)c1cc(-c2ccncc2)nc2c1c(C)nn2-c1ccccn1 | active: 16.4 µM | – |
| O=C(Nc1ccc(Cl)cc1C(=O)Nc1ccccn1)c1ccco1 | inconclusive [inhibitor, single point] | – |
| CCN(C(=O)COC(=O)c1ccccc1Nc1cccc(C)c1C)C1CCS(=O)(=O)C1 (stereo unspecified) | inconclusive [inhibitor, single point] | – |
| CC(=O)Nc1nc2ccccc2n1Cc1ccc(Cl)cc1 | inconclusive [inhibitor, single point] | – |
| Cc1ccc(C(=O)OC(C)C(=O)NC2CCCCC2C)cc1S(=O)(=O)N1CCOCC1 (stereo unspecified) | inconclusive [inhibitor, partial curve] | – |
| Cc1ccc(Oc2c(C(N)=O)cc([N+](=O)[O-])cc2[N+](=O)[O-])cc1 | active: 5.17 µM | – |
| Cc1cccc(C)c1-n1nnnc1C1(C)CCC(=O)N1c1ccc(N2CCOCC2)cc1 (stereo unspecified) | inconclusive [inhibitor, single point] | – |
| COc1ccc(-n2ncc(C(=O)N3CCOCC3)c2C2CCN(C(=O)OC(C)(C)C)CC2)cc1 | – | inactive: -0.57% |
| N#Cc1ccc(OCC(=O)NC2CCCCCC2)cc1 | – | inactive: -21.6% |
| O=C1COc2ccc(-c3cc(-c4ccccc4)c4c(n3)-c3cc(Cl)ccc3OC4)cc2N1 | active: 1.16 µM | – |
| Cc1cccc(NC(=O)CCc2c(C)nc3c(c(C)nn3C(C)(C)C)c2C)c1C | inconclusive [inhibitor, single point] | – |
| Cc1ccc(C)c(NC(=O)CN(C)C(C)C(=O)N2CC(C)CC(C)C2)c1 (stereo unspecified) | inconclusive [inhibitor, single point] | – |
| C=CCNC(=S)NNC(=O)c1csc(C)c1C | – | inactive: -24.1% |
| O=C(NC1CCN(Cc2ccccc2)CC1)c1cncc(Br)c1 | – | inactive: -3.57% |
| COc1ccc(N2CCN(C(=S)NCCc3ccccc3)CC2)cc1 | inconclusive [inhibitor, single point] | – |
| Cc1cc(F)ccc1S(=O)(=O)Nc1ncnc2scc(-c3ccc(F)cc3)c12 | inconclusive [inhibitor, partial curve] | – |
| O=C(O)c1ccc(S(=O)(=O)c2ccc3c(c2)C(=O)N(NC(=O)c2ccc(O)cc2)C3=O)cc1 | – | inactive: 19.6% |
| C[C@@H]1CC[C@@]2(OC1)O[C@H]1C[C@H]3[C@@H]4CC[C@H]5C[C@@H](O)CC[C@]5(C)[C@H]4CC(=O)[C@]3(C)[C@H]1[C@@H]2C | – | inactive: -10.2% [at 21.1 µM] |
| Cc1ccc2cccc(Oc3ncnc4scc(-c5ccc(Cl)cc5)c34)c2n1 | inconclusive [inhibitor, single point] | – |
| COc1ccc(C(=O)Nc2ccc(N3CCOCC3)cc2)cc1OC | inconclusive [inhibitor, partial curve] | – |
| OCc1cccc[n+]1CCc1ccccc1 | – | inactive: -6.36% |

| SMILES | Potency | activity change, negative = growth inhibition |
| --- | --- | --- |
| Cc1ccc(-n2nc(C)c3cc(C(=O)O)sc32)cc1 | inconclusive [inhibitor, single point] | – |
| CCCC(=O)Nc1ccc(N2CCOCC2)cc1 | – | inactive: -1.37% |
| COc1ccc(S(=O)(=O)N2CN3CCN(C3)C2)cc1 | inconclusive [inhibitor, single point] | – |
| COC(=O)c1ccc2nc(-c3ccc(OC)c(OC)c3)c(CC3CCCCC3)n2c1 | active: 18.4 µM | – |
| CCOc1cccc(-c2nnc3sc(-c4cc(OC)c(OC)c(OC)c4)nn23)c1 | inconclusive [inhibitor, partial curve] | – |
| CC1CCc2c(sc3nnn(CC(=O)Nc4ccc(Cl)cc4)c(=O)c23)C1 (stereo unspecified) | inconclusive [inhibitor, single point] | – |
| Cc1cccc[n+]1CC(=O)N1c2ccccc2Sc2ccccc21 | inconclusive [inhibitor, single point] | – |
| CCN(C(=O)c1cn(CC)c(=O)c2cc(OC)c(OC)cc12)c1ccc(C)c(C)c1 | inconclusive [inhibitor, single point] | – |
| CC12CCC(=O)N1C(C(=O)OCC(=O)Nc1ccc(Cl)c(Cl)c1)CS2 (stereo unspecified) | inconclusive [inhibitor, single point] | – |
| O=[N+]([O-])c1ccc(NN=C(C2CC2)C2CC2)c([N+](=O)[O-])c1 | inconclusive [inhibitor, single point] | – |
| Cc1onc(-c2ccccc2)c1C(=O)NCCSCc1ccco1 | inconclusive [inhibitor, single point] | – |
| CCOC(=O)Nc1ccc2c(c1)N(C(=O)CN1CCN(C)CC1)c1ccccc1S2 | – | inconclusive: -31.8% [inhibitor] |
| O=C(CC(=O)c1ccccc1O)c1ccc(F)cc1 | active: 11.6 µM | – |
| O=C(Nc1sc2c(c1C(=O)O)CCC2)C(=O)N1CCOCC1 | – | inactive: -11.1% |
| NS(=O)(=O)c1ccc(CCNC(=O)CSc2ccc3ccccc3c2)cc1 | inconclusive [inhibitor, partial curve, poor fit] | – |
| COc1ccc(C(O)Cn2c(=N)n(CCCN(C)C)c3ccccc32)cc1 (stereo unspecified) | inconclusive [inhibitor, single point] | – |
| O=C(Nc1cccc(F)c1F)C1CCN(c2ncccn2)CC1 | – | inactive: -22.7% |
| COc1ccccc1NC(=O)c1ccccc1NC(=O)c1ccccn1 | inconclusive [inhibitor, single point] | – |
| O=C(NCc1ccc2c(c1)OCO2)c1ccc(CSCc2ccc(Cl)cc2)o1 | inconclusive [inhibitor, single point] | – |
| O=C(Nc1ccc(N2CCCCC2)cc1)C1CCCN1S(=O)(=O)c1ccc(F)cc1 (stereo unspecified) | inconclusive [inhibitor, single point] | – |
| COC(=O)c1cc(Br)c(=O)n(CCC2=CCCCC2)c1 | inconclusive [inhibitor, partial curve, poor fit] | – |
| O=C(Cc1sc(-c2ccccc2)nc1-c1ccccc1)Nc1ccc(Cl)cc1 | inconclusive [inhibitor, single point] | – |
| C/C(=N\OCC(=O)Nc1ccc(Br)cc1)c1cccs1 | – | inconclusive: -32.3% [inhibitor] |
| N#CCC(=O)N/N=C/c1cn(Cc2ccccc2C#N)c2ccccc12 | – | inactive: -23.1% |

| SMILES | Potency | activity change, negative = growth inhibition |
| --- | --- | --- |
| COC(=O)C[C@H]1c2cc(C(F)(F)F)ccc2S(=O)(=O)N1Cc1ccc(OC)cc1 | inconclusive [inhibitor, partial curve] | – |
| CCc1nnc(NC(=O)c2cc(Cl)ccn2)s1 | active: 2.59 µM | – |
| COC(=O)c1cc(NC(=O)c2ccc3c(c2)NC(=O)c2ccccc2S3)cc(C(=O)OC)c1 | active: 6.51 µM | – |
| O=C(CCc1c[nH]c2ccccc12)NC(Cc1c[nH]c2ccccc12)C(=O)O (stereo unspecified) | – | inactive: -9.76% |
| CC(C)(C)[C@H]1C=C(C(=O)NCc2nc3ccccc3[nH]2)O[C@@H](OCc2ccc(CO)cc2)C1 | inconclusive [inhibitor, single point] | – |
| CN1CCN(S(=O)(=O)c2ccc(Cl)c(C(F)(F)F)c2)CC1 | – | inactive: 0.565% |
| CSc1cccc(NC(=O)Cn2ncn3c(cc4ccccc43)c2=O)c1 | inconclusive [inhibitor, single point] | – |
| CCS(=O)(=O)c1ccc(S(=O)(=O)CC)s1 | – | inactive: -20.1% |
| COc1ccccc1NC(=O)c1sc2nc(N3CCOCC3)c3c(c2c1N)CCCC3 | inconclusive [inhibitor, single point] | – |
| O=C(NC(=S)NNC(=O)c1cnccn1)c1ccc(Cl)cc1 | inconclusive [inhibitor, single point] | – |
| CCSc1nn(CC(=O)Nc2ccc(C(=O)OC)cc2)c(N)c1S(=O)(=O)c1ccc(C)cc1 | active: 20.6 µM | – |
| CC(=O)c1ccc(S(=O)(=O)NCC2(N3CCOCC3)CCCCC2)cc1 | – | inactive: -21.2% |
| COC(=O)c1cc2occc2n1CC(=O)Nc1ccc(C(C)C)cc1 | – | inactive: -27.7% |
| O=C(Nc1ccc(F)cc1)N1CCN(C(=O)c2nsc3ccccc23)CC1 | inconclusive [inhibitor, single point] | – |
| Cc1[nH]c2ccccc2c1/C=C/c1ccnc2ccccc12 | active: 2.82 µM | – |
| COc1cccc(-n2nnc(-c3nc(-c4ccccc4F)no3)c2C)c1 | inconclusive [inhibitor, single point] | – |
| O=C(NC1(Cc2ccccc2)CCN(CCc2cccs2)C1=O)c1ccccc1 (stereo unspecified) | inconclusive [inhibitor, single point] | – |
| Cc1cccc(N2CCN(C(c3ccccc3)c3nnc(-c4ccccc4Cl)o3)CC2)c1C (stereo unspecified) | inconclusive [inhibitor, single point] | – |
| CC(C)(C)C1CCC2(CC1)NC(=S)N(c1ccccc1)N2 (stereo unspecified) | inconclusive [inhibitor, single point] | – |
| CCOC(=O)CSc1nnc2n(C3CCCCC3)c(=O)c3c4c(sc3n12)CCCC4 | inconclusive [inhibitor, single point] | – |
| CCOC(=O)C1Nc2ccc(C(F)(F)F)cc2C2C=CCC12 (stereo unspecified) | inconclusive [inhibitor, single point] | – |
| O=C(O)c1ccc(OCCCCCCOC2CCCCO2)cc1 (stereo unspecified) | active: 18.4 µM | – |
| CCn1c(SCC(=O)NNC(=O)c2ccc(OC)cc2)nnc1-c1cccnc1 | inconclusive [inhibitor, single point] | – |
